Results: PubChem BioAssay AID463173 (ICCB-Longwood Screening Facility, Harvard Medical School, 2010)
About 1,700 (3.3%) of roughly 52,000 compounds were called active. Rule as the data show it: active = survival mostly below about 52% (no sharp cut-off); inactive = mostly above about 56%. The list shows a part of the results.

What follows are compounds tested on Wild type (assay: growth inhibition of S. aureus wild type versus tarO mutant, primary screen, teichoic acid synthesis inhibitors, RN4220, OD600 (AID 463173)). Conditions: S. aureus RN4220 wild type/DeltatarO growth, OD600, 18 h, active compounds read low, screened at 18.75 µg/mL (by protocol).

Row | SMILES | survival
1 | COc1cccc(-c2cc(C(=O)N3CCN(c4ccccc4OC)CC3)no2)c1 | active: -9%
2 | CCc1ccc(NC(=O)c2sc3nc4c(cc3c2N)CN(CC)CC4)cc1 | inactive: 84%
3 | COc1ccc(Cl)cc1NC(=O)Cc1coc2c(C)c(C)ccc12 | inactive: 81%
4 | Cc1cc2ncn(CCC(=O)NC(C)(C)C)c2cc1C | inactive: 104%
5 | O=C(CN(c1ccc2c(c1)OCCO2)S(=O)(=O)c1ccccc1)N1CCCCCC1 | inactive: 114%
6 | Cc1cccc(CSc2nc3cc(C(=O)NC4CCCC4)ccc3c(=O)n2Cc2ccccc2)c1 | inactive: 88%
7 | Cc1coc2cc3oc(=O)c(CC(=O)N4CCCCC4)c(C)c3cc12 | inactive: 86%
8 | Cc1cccc(NC(=O)CN2C(=O)CSC2=O)c1 | inactive: 104%
9 | Cc1ccc(CNS(=O)(=O)c2ccc(-c3cnc(C4CC4)o3)cc2)cc1 | inactive: 71%
10 | CCc1cccc(NC(=O)Cn2c(=O)c(C(F)(F)F)nc3ccccc32)c1 | inactive: 80%
11 | CCC(CC)C(=O)Nc1c(C(=O)N2CCN(c3ccccc3)CC2)oc2ccccc12 | inactive: 110%
12 | Cc1cc(C)c2c(=O)cc(C(=O)Nc3nc4ccc(F)cc4s3)oc2c1 | inactive: 81%
13 | Cc1cc(=O)oc2cc3c(cc12)OCCN3 | inactive: 110%
14 | CCCN(CCC)CC(O)Cn1cc(/C=C/C(=O)c2ccc(OC)cc2)c2ccccc21 (configuration not stated) | active: 1%
15 | CC1CCCCN1C(=O)c1ccc2c(c1)N(Cc1cccc(Cl)c1)C(=O)c1ccccc1S2=O (configuration not stated) | inactive: 101%
16 | O=C(c1cccc(F)c1)c1ccc2c(c1)CCCO2 | inactive: 101%
17 | CCCCNC(=O)c1cccc(-n2cnc3cccnc32)c1C | inactive: 68%
18 | CN1C(=O)SC(CC(=O)O)C1=O (configuration not stated) | inactive: 108%
19 | Cc1cc(N(C)Cc2ccccc2)n2nc(-c3ccc(C(C)(C)C)cc3)nc2n1 | inactive: 77%
20 | CCc1ccc(-n2nc3cc(C)c(NC(=O)c4ccccc4C)cc3n2)cc1 | inactive: 75%
21 | O=C(CCN1CCc2ccccc2C1)Nc1ccc(F)c(F)c1 | inactive: 100%
22 | CCOc1ccc(-c2c(C)nn3c(C)c(C(=O)NCc4ccc(Cl)cc4)cnc23)cc1OCC | inactive: 123%
23 | COc1ccc(OCCn2nnc3sc4c(c3c2=O)CCC(C(C)(C)C)C4)cc1 (configuration not stated) | inactive: 122%

Row | SMILES | survival
24 | CC1CCN(c2nc3c(-c4cccc(Br)c4)nnn3c3ccccc23)CC1 | inactive: 85%
25 | COc1ccc(CNC(=O)CCc2c(C)nn(-c3ccc(N4CCCCC4)nn3)c2C)cc1 | inactive: 83%
26 | CCCCCn1c(=O)[nH]c2cc(C(=O)NCCN(C)CCCC)ccc2c1=O | inactive: 70%
27 | CCC(NC(=O)Nc1cc(Cl)ccc1OC)c1c(-n2cccc2)sc2c1CCN(C)C2 (configuration not stated) | inactive: 72%
28 | N=c1n(CCO)c2ccccc2n1Cc1ccccc1F | inactive: 74%
29 | COc1ccc(CCNC(=O)c2cc(=O)c3cc(C)cc(C)c3o2)cc1OC | inactive: 93%
30 | O=C(CSc1c2c(nc3ccc(Cl)cc13)CCCC2)NCc1ccccc1Cl | inactive: 116%
31 | O=C(OCc1ccco1)c1ccc2c(c1)N(Cc1cccc(F)c1)C(=O)c1ccccc1S2 | inactive: 66%
32 | CCOc1ccccc1NC(=O)CC(c1ccc(F)cc1)N1Cc2ccccc2C1=O (configuration not stated) | inactive: 80%
33 | Cc1ccc(-c2cc(C(=O)OCC(=O)c3ccccc3)c3cccc(Cl)c3n2)cc1 | inactive: 102%
34 | CCC(Sc1nc2ccccc2c2nc(CCn3c(C)nc4ccccc43)nn12)C(=O)Nc1ccc(F)cc1 (configuration not stated) | inactive: 73%
35 | COc1ccc(Br)c(C(=O)Nc2cc3c(cc2N2CCCC2)n(C)c(=O)c(=O)n3C)c1 | inactive: 83%
36 | COc1ccc(CCNC(=O)CCCn2c(=O)c3cccn3c3ccccc32)cc1OC | inactive: 63%
37 | COc1ccccc1N1CCN(C(=O)C2CCN(S(=O)(=O)Cc3ccccc3)CC2)CC1 | inactive: 84%
38 | CCC(Cc1ccccc1)NC(=O)CN1C(=O)COc2ccc(S(=O)(=O)N3CCCCCC3)cc21 (configuration not stated) | inactive: 118%
39 | Cc1cc2c(cc1NC(=O)c1ccccc1C)n(C)c(=O)c(=O)n2C | inactive: 55%
40 | CCOCCCNC(=O)C1CCN(C(=O)c2cc3sccc3n2C)CC1 | inactive: 79%
41 | CC1Cc2ccccc2N1C(=O)c1cc2n(n1)C(C(F)(F)F)CC(c1ccco1)N2 (configuration not stated) | inactive: 110%
42 | CCCNC(=O)CSc1nnc(-c2cccnc2)n1C1CCCCC1 | inactive: 100%
43 | CC(C)CCN(Cc1ccco1)C(=O)c1cc2c(s1)-c1ccccc1OC2 | active: 7%
44 | COc1ccc(NC(=O)CCCN2C(=O)C(c3ccccc3)Oc3cccnc32)c(OC)c1 (configuration not stated) | inactive: 86%
45 | CCc1ccc(CNC(=O)CCCN2C(=O)CCn3nc(-c4cccn4C)cc32)cc1 | inactive: 75%
46 | CCc1ccc2oc(C(=O)Nc3cccc(Cl)c3C)cc(=O)c2c1 | inactive: 88%

Row | SMILES | survival
47 | O=C(O)Cn1cnc2ccccc2c1=O | inactive: 116%
48 | COc1cc(-c2nnc(SCCOc3ccc(Cl)cc3)o2)cc(OC)c1OC | inactive: 91%
49 | O=C(COc1ccccc1)OCc1cc(=O)n2nc(C3CC3)sc2n1 | inactive: 85%
50 | CCCNC(=O)N1c2ccc(F)cc2CCC1C (configuration not stated) | inactive: 113%
51 | Cc1cccc(N2CCN(C(=O)Cc3c(C(=O)O)c(C)cn3C)CC2)c1C | inactive: 70%
52 | Cc1ccc(C(=O)c2c(N)c(-c3nc(-c4ccc5c(c4)OCO5)cs3)c3ccccn23)cc1C | inactive: 95%
53 | COCc1nn2cc(-c3ccc(C)cc3)nc2s1 | inactive: 111%
54 | Cc1ccc(C(=O)Nc2cc(-c3nc4ncccc4o3)ccc2C)c(C)c1 | inactive: 73%
55 | CC(=O)c1ccc(N2CCN(C(=O)C3CCN(S(=O)(=O)c4c(C)noc4/C=C/c4ccc(C)cc4)CC3)CC2)cc1 | inactive: 127%
56 | CC(=O)N1CCc2c(sc3c2c(=O)n(Cc2ccccc2)c(=O)n3Cc2ccc(C)cc2)C1 | inactive: 92%
57 | COC(=O)c1ccc(Cn2cnc3nc4c(cc3c2=O)CCCC4)cc1 | inactive: 85%
58 | CCOc1ccccc1CNC(=O)C1CCN(S(=O)(=O)c2ccc3[nH]c(=O)ccc3c2)CC1 | inactive: 19%
59 | CCOC(=O)c1c(C)oc2ncnc(Nc3ccc(OC)cc3OC)c12 | inactive: 94%
60 | COc1ccccc1NC(=O)CSC1=Nc2ccccc2C2=NC(CCC(=O)NCCc3ccccc3)C(=O)N12 (configuration not stated) | inactive: 74%
61 | CCOc1ccccc1NC(=O)Cn1ncc2c(=O)oc3ccc(C)cc3c21 | inactive: 89%
62 | Cc1nc(NCC2CCCO2)c2nnn(Cc3c(F)cccc3Cl)c2n1 (configuration not stated) | inactive: 103%
63 | CC1(C)CC(=O)c2cc(-c3ccccc3)n(CC(=O)O)c2C1 | inactive: 113%
64 | O=C(Nc1nc2c(s1)CCCCCC2)Nc1ccc(F)cc1F | active: -2%
65 | CCOc1ccc(NC2=NCCC(=O)N2Cc2cccs2)cc1 | inactive: 115%
66 | O=C1CSC(=O)N1CC(O)Cn1c2ccccc2c2ccccc21 (configuration not stated) | inactive: 111%
67 | COc1ccc(N2CCN(C(c3ccccc3)c3sc4nc(-c5ccco5)nn4c3O)CC2)cc1 (configuration not stated) | inactive: 69%
68 | CCN(CC)C(=O)Nc1ccc(I)cc1 | inactive: 115%
69 | Cc1ccc(C(=O)N2CCc3cc(CNS(=O)(=O)c4cccs4)ccc32)cc1 | inactive: 77%

Row | SMILES | survival
70 | CN1C(=O)Cc2cc(S(=O)(=O)NCCc3ccc(Cl)cc3)ccc21 | inactive: 136%
71 | COc1ccc(-c2noc(CSc3nnc(C)n3-c3ccc(C)cc3)n2)cc1OC | inactive: 84%
72 | O=C(NC1CCCCC1NC(=O)c1ccco1)c1ccco1 (configuration not stated) | inactive: 105%
73 | CCCOc1ccc(NC(=O)CC2C(=O)N(c3cccc(OC)c3)C(=O)N2Cc2cccs2)cc1 (configuration not stated) | inactive: 76%
74 | O=C(CSCc1cnn(-c2ccccc2)c1-n1cccc1)NCc1ccc(Cl)cc1 | inactive: 88%
75 | O=C(Nc1ccc(O)c(-c2nc3ccccc3o2)c1)c1sc2ccccc2c1Cl | inactive: 121%
76 | CCCC(=O)c1cc2c(cc1N)OCCO2 | inactive: 95%
77 | COc1ccccc1N1CCN(C(=O)c2cn(CC(C)C)c(=O)c3c2c2ccccc2n3C)CC1 | inactive: 87%
78 | CCOc1ccccc1C(=O)NC1(C(F)(F)F)NC(=O)N(CCc2ccc(OC)c(OC)c2)C1=O (configuration not stated) | inactive: 77%
79 | COc1cc(OC)cc(-c2cc3nc(C)c(CCC(=O)NCc4ccccc4)c(C)n3n2)c1 | inactive: 89%
80 | Cc1nc2ccn(Cc3ccccc3)c(=O)c2cc1C(=O)N1CCN(c2ccccc2F)CC1 | inactive: 80%
81 | Cc1cccc(C2C=C(c3ccc(C)c(C)c3)Nc3nnnn32)c1 (configuration not stated) | active: 1%
82 | Cc1cc(F)ccc1S(=O)(=O)Nc1ccc2oc3c(c2c1)CC(C)CC3 (configuration not stated) | active: -6%
83 | Cc1cc2ncn(S(=O)(=O)N3CCOCC3)c2cc1C | inactive: 101%
84 | CC(C)c1ccc(NC(=O)c2ccc3c(c2)CCN3S(=O)(=O)c2ccccc2)cc1 | inactive: 82%
85 | CCN(CC)c1nc2n(c(=S)n1)CCS2 | inactive: 101%
86 | O=C(Nc1nnc(S(=O)(=O)N2CCCc3ccccc32)s1)c1ccccc1Cl | inactive: 33%
87 | Cc1ccc(-n2nc(CO)c(C(=O)NC(C)CCCc3ccccc3)n2)cc1 (configuration not stated) | inactive: 96%
88 | CC(C)CC(NS(=O)(=O)c1ccc2c(c1)oc(=O)n2C)C(=O)NCc1ccccc1Cl (configuration not stated) | inactive: 88%
89 | CCCn1c(=O)sc2cc(NC(=O)c3ccc(OC)c(Br)c3)ccc21 | inactive: 79%
90 | CCCOc1ccc(CN(C(=O)Cc2coc3ccc(CC)cc23)C2CCS(=O)(=O)C2)cc1 (configuration not stated) | inactive: 80%
91 | COc1ccc(NC(=O)c2c(NCc3sccc3C)sc3c2CCCC3)c(OC)c1 | inactive: 83%
92 | CCc1nn2c(=O)cc(COC(=O)CNC(=O)COc3ccc(C)cc3)nc2s1 | inactive: 135%
